Sequences and labels used below:
B1: LINE1-mini (parent)
chain: GGCAGAGCUCAACACAGCGUGGCAAAGUGGCUGUGGCUAGACUGCC

Read counts are not given, so values of variants with three or more changes are uncertain.

In the series the parent is B1. The experiment in a line: self-cleavage, relative activity (ratio to wild type); higher = more cleavage; in vitro, sequencing; the parent is a self-cleaving ribozyme.
Regarding G1A A6U C13G G19A A26U C31G G35A, the self-cleavage came out at 0.05.
With A24G U32C G33U U38A, the self-cleavage is 0.03.
In the case of C3G C31G C37G, the self-cleavage is 0.04.
Take G5C G27C C31G: the self-cleavage amounted to 0.03.
Consider C3A A16C G36U, for which the self-cleavage worked out at 0.14.
The figure for G7C A14C C42A G44U is 0.03.
Then G7C A11C U34G, with 0.01.
Then G21U U32G A39C, with 0.09.
Take A4U A16G G21A A26C: the self-cleavage turned out to be 0.06.
Take G21A G30A C31A C46A: the self-cleavage stood at 0.22.
On to C18U G27U C46U, for which the self-cleavage was 0.23.
In the case of C23A G27C A39C, the self-cleavage amounted to 0.07.
The figure for G7A C31A G33A G35U is 0.25.
The figure for G2A C13U G19A C46U is 0.78; for C3A G7U A25G G27A C31U G35A G40U A41U it is 0.04; for C8A G27C G29A C37U it is 0.11.
Consider A4U G22A U34A C37G, for which the self-cleavage is 0.11.
As for A16G C18A A26G, the self-cleavage was determined as 0.11.
In the case of A24G A26G G33C, the self-cleavage is 0.05.
The figure for C3G C13A A39G is 0.17; for A11G G19A A24U it is 0.02.
Then C10U C15U C31A G44U, with 0.05.
On to C3G A4U A26U, for which the self-cleavage is 0.09.
Then C31G A39C G40A, with 0.11; and A26G G33U G35U, with 0.14; and C8U C10A A16U C37G G44U, with 0.03.
The figure for G2U A11G A12U A25G U38A is 0.01.
On to A12G C37A A39U, for which the self-cleavage was 0.17.
Then A16G G17U C31A C37G, with 0.02; and G2C G35A C45A, with 0.13.
The figure for U38A C42U G44A C46A is 0.03.
Turning to G17U C31G U38C, the self-cleavage is 0.26.
Then G5C A11C A14G, with 0.04.
For A6G A11U C15G A16G G21C U28A, the self-cleavage is 0.02.
The figure for A4G A24G G36U is 0.12.
The figure for A26U G27C A41G is 0.15.
Regarding A24G U34A C46U, the self-cleavage came out at 0.04.
As to U9C G21U G40U, the self-cleavage turned out to be 0.03.
Then C13A A14G G21C C23A A24G, with 0.03.
Turning to C15A G27U U34A, the self-cleavage is 0.02.
For the variant G7A G19A G35A A41G, the self-cleavage stood at 0.15.
Then G1C A4C G7U G17C U20A G21U, with 0.31.
The figure for C3G C15G A25C A26U G33U is 0.05; for C18G U20A A25G it is 0.04.
The figure for G1U G19A A24C G40C is 0.01; for A4U U32A G40C it is 0.02; for G5U G7C G30U G33U G35U it is 0.03.
In the case of A4G A24C A39C, the self-cleavage is 0.06.
The figure for G1U G30A C45U is 0.29.
The figure for C3A C8A C45A is 1.41.
Regarding A4G A25G A26C G30U, the self-cleavage is 0.07.
The figure for C10U A11G A12U G22A is 0.01.
Consider G7C U20C A26U G44A, for which the self-cleavage amounted to 0.02.
For A11G A24G U28C U32C, the self-cleavage came to 0.05.
Then G5A A6U C18U G19C U38G A39U G40U, with 0.08.
For C3A A25G G44A, the self-cleavage was 0.46.
On to C3A G35C C42A G44A, for which the self-cleavage was determined as 0.11.
As to A26U G33C G36U, the self-cleavage was 0.06.
Then G17A G27A G40U G44A, with 0.05; and C3U C15A A24C U28C A39C G44A, with 0.06.
Turning to G2U G7C A11C C13A G21C G29C, the self-cleavage came out at 0.
Then G7A G27A G40C, with 0.07; and C8U A11U G29U, with 0.02; and C18U G22C A39U, with 0.65.
Then A4U A16U G22U G27A C37U C42G, with 0.18.
The figure for C10G G17U G22U A24C A26C C42G is 0.02.
In the case of A25C A26G G29C G30C, the self-cleavage was found to be 0.27.
For G7A C8A G17C G22U, the self-cleavage was found to be 1.88.
Regarding G5U C8A C46A, the self-cleavage came out at 0.27.
As to G5A C8A G21U G33C, the self-cleavage was found to be 0.08.
Then G17U G35U A39G, with 0.02; and C3A C13G A16G G44C, with 0.03; and C3A A25C U28A U34A, with 0.12.
Then A12C G22C U28A, with 0; and C8A A12U U28C U38A, with 0.59.
Then G7A U20G G21C U38C, with 0.05; and A16C A26U G27U, with 0.05; and G1A G17C C18A, with 0.18.
In the case of G5U C15U C18A C23G, the self-cleavage turned out to be 0.03.
For C13A G22A G29U, the self-cleavage stood at 2.22.
With G5C A12U A16C U20G, the self-cleavage was 0.03.
On to G2C G36C G40A C42U, for which the self-cleavage is 0.02.
With U9G A14U C46A, the self-cleavage came out at 0.06.
Then G17C C18A C45G, with 0.05.
G22C A41U C45U: the self-cleavage amounted to 0.06.
Then G1U A4G G29U, with 0.78.
For the variant A12G G17A G29U A41U, the self-cleavage turned out to be 0.02.
As to A11G C15U G33U A41U, the self-cleavage came out at 0.
Then G7U U9A C18U C23A, with 0.13; and G1U G30C G40A, with 0.02; and A6C C8G C13U G17A G35U C42U, with 0.18.
The figure for C10A A26U U43A is 0.01.
As for A4G G27A A39C G40C, the self-cleavage was 0.02.
The figure for C15A A25U U28A is 0.08; for A11C G22U C37G it is 0.01; for C18A U20A A26U G29A G44A it is 0.12.
Take A12G A24U C42A: the self-cleavage is 0.07.
Then G21C A26C G36U, with 0.02.
For the variant G5A A11U A14C G21A U28C, the self-cleavage was found to be 0.01.
Then G1U A12G C18G U28C G30U C31U U38G C42G C46U, with 0; and C10A G22A A26U U38A, with 0.31.
Consider U9C A14G C18U G44A, for which the self-cleavage was 0.01.
Then C10U G21A A26G, with 0.46; and G7A A16U G17C C31A G35U C45U, with 0; and A11U G19C A25G, with 0.05.
The figure for C8G G27C U28C G36U is 0.11; for A16G U32G G33C it is 0.02; for G21U A41G C46G it is 0.36.
Then C10G A11U C23U C42A, with 0.01.
For the variant G1U C8U G35A, the self-cleavage came to 0.06.
The figure for C10U G22U G29A is 0.21; for A6G C15A C31G G33A it is 0.01; for A4C G19A U34C A39C it is 0.02.
The figure for G19U G21C C23A is 2.49; for A6G A12C G17U A26U G33A C45A C46A it is 0.03.
For A16G C18U C31A C42U C45A, the self-cleavage was 0.
A12C G21U C37A: the self-cleavage came to 0.04.
The figure for G2U A11G G17A C45A is 0.01; for C8U C13U G17C A39C it is 0.7.
With C10A C23G G30U G33A C37G C42A, the self-cleavage was found to be 0.01.
Consider A6U U9A G40A G44C, for which the self-cleavage is 0.08.
Regarding C8G C10A C42U C46A, the self-cleavage came out at 0.03.
C10G G29A A39U A41C: the self-cleavage worked out at 0.
With G5A A12G A39U C46U, the self-cleavage was determined as 0.01.
On to A25U G40A C42G, for which the self-cleavage was 0.02.
Regarding A12G C18A G21U, the self-cleavage stood at 0.04.
Take C10A U32G G44U C46A: the self-cleavage was found to be 0.06.
In the case of G19U U32C C46A, the self-cleavage turned out to be 0.21.
Take A16U A26C G33C G35A: the self-cleavage is 0.01.
The figure for G2C C18U C23A is 0.18.
The figure for C13U C23U U32C U38A is 0.03.
The figure for G7C A16U A25G is 0.05.
Regarding C3G G7A G19U, the self-cleavage was 0.57.
Consider G5U C10A A16C G21U G36U, for which the self-cleavage was found to be 0.06.
Then C18G U20G G40U, with 0.01; and C10U G29U C31U U34G G36U G40A, with 0.04; and C13G A14C G22A, with 0.02.
Then C8A C18U G27C, with 0.07; and G5A C15A G17C A39G, with 0.04.
The figure for G2C C15G G29A is 0.04.
Take A25G G36A U38C C45U: the self-cleavage turned out to be 0.37.
The figure for A25U C31G U38G C45G is 0.02; for G1C C15A C31U A41U C46U it is 0; for C10U A12C C45A C46A it is 0.02.
With C8U G21A C23U A24G G29U, the self-cleavage is 0.12.
The figure for C3G A11G C15A A26G U34C is 0.01; for C3G A6U A24C U28A C31A U34C it is 0.05; for G2C C8U C42G it is 0.39.
Then C3A C10U G30A, with 0.68; and G2C G29U C42G, with 0.24; and G1A G2A C13U, with 2.27.
The figure for G2A C23A A39C is 0.2.
Consider G1A C3A C13U U38C G40C C42A C46G, for which the self-cleavage worked out at 0.28.
For the variant G19U C23A C37U U38G, the self-cleavage was 0.02.
For the variant G1U G7U A16C, the self-cleavage amounted to 0.08.
Then G17A G19C A26G U32G, with 0.03; and A4G C8A C10U G17C, with 0.04; and G2A A14C G22U C23G C37A G44A, with 0.08.
G5U A24U G40C G44A C45A: the self-cleavage is 0.01.
Turning to C3A A4U G17U G19A, the self-cleavage came out at 0.52.
Turning to G27C G35U C37G, the self-cleavage came to 0.01.
The figure for C3U G29U C37A is 0.22.
Turning to G29A A41U G44A, the self-cleavage is 0.23.
The figure for U9G C15A G30U is 0.03; for A39C G44A C46U it is 0.09; for G2C A39G C42G it is 0.47.
G2C C15U G35C: the self-cleavage turned out to be 0.1.

The record behind these values is the RNAGym collection of RNA variant scans (doi:10.7554/elife.90254).
